# Experimental data reported in PubChem BioAssay AID1466 (National Center for Advancing Translational Sciences (NCATS), 2008).
# Screen size: about 200,000 compounds; about 10 (0.005%) were called active. The shares of active, inactive and inconclusive entries below differ from those in the screen. Calls come from the whole dose curve; as a rule, active = well fitted inhibition curve with a large enough effect; inconclusive = small, poorly fitted or top-dose-only effect, or effect the other way, or another doubt; inactive = no such curve, though single readings can be large or run the other way. No potency is given beside an inconclusive call; the fits are too rough.
# Biological target: Lysosomal alpha-glucosidase (Homo sapiens) (UniProt P10253)
# Assay: qHTS Assay for Inhibitors of Human alpha-Glucosidase as a Potential Chaperone Treatment of Pompe Disease;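 for activity change, negative = inhibition: plate controls were uninhibited enzyme wells for no effect and no-enzyme background for full effect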
# Details: purified human GAA, 4-MU-alpha-glucoside fluorescence; activity change, negative = inhibition: at 76.9 µM (top of the series) unless noted
# Procedure, shortened: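 Endpoint fluorogenic read: 20 min room-temperature reaction of 4 nM human alpha-glucosidase with 400 uM 4-methylumbelliferyl-alpha-D-pyranoside, pH 5.0, quenched with 1M NaOH/1M glycine pH 10. AC50 from Hill modeling.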
# Potency is the fitted concentration of half-maximal effect; tags give direction and shape of the fitted curve.
SMILES,Potency,"activity change, negative = inhibition"
Nc1ccc(-c2nc3c(Cl)c(N)ccc3[nH]2)cc1,"inconclusive [activator, partial curve]",
COc1ccc(S(=O)(=O)N2CCC(C(=O)N3CCc4ccccc4C3)CC2)cc1C,"inconclusive [inhibitor, partial curve, poor fit]",
CCCOc1ccccc1C1CC(=O)NC(C)=C1C(=O)OCC(C)C (stereo not drawn),"inconclusive [inhibitor, single point]",
O=S(=O)(c1ccc2nc(-c3ccco3)c(-c3ccco3)nc2c1)N1CCOCC1,"inconclusive [inhibitor, partial curve, poor fit]",
Cc1ccc(S(=O)(=O)N(C)c2c(C)ccc(S(=O)(=O)N3CCN(C)CC3)c2C)cc1,"inconclusive [inhibitor, single point]",
CCC(=O)NC(c1ccccc1Cl)c1c(O)ccc2ccccc12 (stereo not drawn),"inconclusive [activator, partial curve, poor fit]",
COc1ccccc1OCCCC(=O)Nc1ccc([N+](=O)[O-])cc1Br,"inconclusive [inhibitor, single point]",
CC1CCCN(S(=O)(=O)c2cccc(-c3cn4cccnc4n3)c2)C1 (stereo not drawn),"inconclusive [activator, partial curve]",
O=C(COc1ccc2ccccc2c1)Nc1ccncc1,,inconclusive: -18.6% [inhibitor]
COc1cccc(/C=N/n2c(C)nc3ccccc32)c1OC,"inconclusive [inhibitor, single point]",
O=c1[nH][nH]c2cc(=O)n(-c3ccc(Cl)cc3)nc12,,inconclusive: -18.2% [inhibitor]
COc1ccc(C2Nc3ccccc3C(=O)N2c2ccc(F)cc2)cc1CSc1ccccn1 (stereo not drawn),"inconclusive [activator, partial curve]",
CCOC(=O)C1CCCN(CC(=O)/C=C2/N(C)c3ccccc3C2(C)C)C1 (stereo not drawn),,inconclusive: -15.9% [inhibitor]
CN1CC(=O)N(CC(=O)Nc2ccc(Cl)c(C(F)(F)F)c2)C1=O,"inconclusive [inhibitor, single point]",
N#Cc1c(N)nc(N)nc1Nc1ccc(Br)cc1,inactive,
Cc1ccc(N2N=C(c3ccc(F)cc3)CC2c2ccco2)cc1 (stereo not drawn),"inconclusive [activator, partial curve]",
CCOc1ccc(CCNC(=O)c2cccc(C#N)c2)cc1OCC,"inconclusive [inhibitor, full curve, poor fit]",
CC(C)(C)C1(C)OC(C(=O)NC2CCCCC2)C(C(=O)NC2CCCCC2)O1 (stereo not drawn),"inconclusive [inhibitor, single point]",
O=S(=O)(c1ccc(F)cc1)N1CC2CCCN2c2ccc(C(F)(F)F)cc21 (stereo not drawn),"inconclusive [inhibitor, partial curve]",
O=C(Nc1ccc2c(c1)OCO2)c1cc2ncc(Br)cn2n1,"inconclusive [inhibitor, partial curve, poor fit]",
COc1cc(OC)c(N(C)C(=O)CCNC(=O)Cn2cnc3ccccc3c2=O)cc1Cl,"inconclusive [inhibitor, single point]",

SMILES,Potency,"activity change, negative = inhibition"
COc1cccc(NC(=O)NCc2ccccc2F)c1,,inconclusive: 16.9% [activator]
CCOc1ccc(S(=O)(=O)N(CC(N)=O)c2ccc(C)cc2)cc1,,inconclusive: -15.3% [inhibitor]
N#Cc1nc(-c2cccc3ccccc23)oc1NCCN1CCOCC1,,inconclusive: 39.1% [activator]
Cc1csc(NS(=O)(=O)c2cccc([N+](=O)[O-])c2)n1,,inconclusive: 16.7% [activator]
CC(NC(=S)Nc1ccc(OC(F)F)cc1)c1ccc(F)cc1 (stereo not drawn),inactive,
O=C(NCc1ccc(OC(F)(F)F)cc1)C1CC(c2ccccc2[N+](=O)[O-])=NO1 (stereo not drawn),"inconclusive [inhibitor, single point]",
CCOC(=O)N1CCN(C(=O)C2CCN(S(=O)(=O)c3ccc(Cl)cc3)CC2)CC1,"inconclusive [inhibitor, single point]",
N#Cc1cc([N+](=O)[O-])c(-n2nnc3ccccc32)c([N+](=O)[O-])c1,"inconclusive [inhibitor, single point]",
COc1ccc(/C=N/NC(=O)CSc2nnc(CCCc3ccc(OC)c(C)c3)o2)cc1,"inconclusive [inhibitor, partial curve, poor fit]",
CCCCCCN1C(=O)C(O)=C(C(C)=O)C1c1ccccc1[N+](=O)[O-] (stereo not drawn),,inconclusive: 15.4% [activator]
CCCN(CCC)CCNC(=O)C1c2ccccc2C(=O)N2CCc3ccccc3C12 (stereo not drawn),"inconclusive [inhibitor, partial curve]",
O=C(Nc1ccc(Cl)cc1)N1CCC(c2nc(-c3ccc(F)cc3)no2)CC1,,inconclusive: -20.7% [inhibitor]
Oc1ccccc1N=Cc1sc2ccccc2c1Cl,"inconclusive [inhibitor, single point]",
COc1ccccc1N1CCN(C(=O)CN(c2ccc(C)c(C)c2)S(C)(=O)=O)CC1,"inconclusive [inhibitor, single point]",
COc1cccc(-c2nnc(SCN3C(=O)c4ccccc4C3=O)n2C)c1,"inconclusive [inhibitor, full curve]",
O=C(Cc1ccccc1)Nc1ccc(SC(F)F)cc1,"inconclusive [inhibitor, partial curve, poor fit]",
Cc1cccc(OCCCC(=O)N2CCCc3ccccc32)c1C,"inconclusive [inhibitor, partial curve, poor fit]",
N=c1c2c(-c3ccccc3)c(-c3ccccc3)n(Cc3ccco3)c2ncn1CCCn1ccnc1,inactive,
COc1ccc(C)cc1NC(=O)CC1COc2ccccc2O1 (stereo not drawn),"inconclusive [inhibitor, partial curve]",
CC(C)C(=O)N1N=C(c2ccc(NS(C)(=O)=O)cc2)CC1c1cccs1 (stereo not drawn),"inconclusive [activator, partial curve]",
Oc1ccc(/C=N/Nc2ccc(C(F)(F)F)cn2)cc1,inactive,

SMILES,Potency,"activity change, negative = inhibition"
Cc1cccc2sc(NC(=O)CN3C(=O)C4CC=CCC4C3=O)nc12 (stereo not drawn),"inconclusive [inhibitor, single point]",
CCN(CC)C(=O)c1ccc(NS(=O)(=O)c2ccc(/C=C/C(=O)O)cc2)cc1,,inconclusive: -18.9% [inhibitor]
Cc1ccc(S(=O)(=O)NCc2ccc(/C=C(/C#N)C(=O)NCc3ccccc3)o2)cc1,"inconclusive [inhibitor, partial curve]",
CC(=O)NCC(=O)N(c1ccccc1)C1(C(=O)NC2CCCCC2)CCCCC1,"inconclusive [activator, single point]",
Cc1cccc2cc(CN(Cc3cccs3)C(c3nnnn3C3CCCC3)C(C)C)c(=O)[nH]c12 (stereo not drawn),"inconclusive [inhibitor, full curve, poor fit]",
O=C(NNC(=O)C1CCN(Cc2ccccc2)CC1)c1cccs1,"inconclusive [inhibitor, single point]",
O=c1c2ccccc2c2ccccc2c(=O)n1-c1ccccc1,,inconclusive: 12.3% [activator]
CCOC(=O)N1CCN(S(=O)(=O)c2ccc(C)cc2)C1c1ccccc1 (stereo not drawn),"inconclusive [inhibitor, single point]",
N/C(=N\OC(=O)COc1ccc(Cl)cc1Cl)c1ccccn1,"inconclusive [inhibitor, single point]",
COCCNCC1C(Oc2ccc(Cl)cc2)C(=O)N1c1ccccc1C (stereo not drawn),"inconclusive [inhibitor, single point]",
COc1ccc(OCCCC(=O)NC(C)c2ccccc2)cc1 (stereo not drawn),"inconclusive [inhibitor, single point]",
CCOC(=O)N1CCN(C(=O)CS(=O)(=O)c2cn(Cc3ccccc3Cl)c3ccccc23)CC1,"inconclusive [inhibitor, single point]",
CCCCCC(=O)Nc1ccc(-c2csc(N)n2)cc1,"inconclusive [inhibitor, single point]",
COc1ccc(CNC(=O)C2=C(C)C(=O)OC23CCC(C)CC3)cc1 (stereo not drawn),"inconclusive [inhibitor, partial curve, poor fit]",
Cc1ccc(CN2CCSc3ccc(C(=O)NCc4cccnc4)cc32)cc1,"inconclusive [activator, full curve, poor fit]",
O=C(Nc1ccc(Cl)cn1)C1COc2ccccc2O1 (stereo not drawn),,inconclusive: 16% [activator]
Nc1c(C(=O)O)ccc2c1C(=O)c1ccccc1C2=O,inactive,
CCOC(=O)CN1N=C(/C=C/c2ccc(OC)cc2)CCC1=O,"inconclusive [inhibitor, partial curve, poor fit]",
Cc1ccc(S(=O)(=O)n2c(=O)oc3ccccc32)cc1,"inconclusive [inhibitor, partial curve]",
O=C(c1ccccn1)N1N=C2/C(=C/c3ccc(F)cc3)CCCC2C1c1ccc(F)cc1 (stereo not drawn),"inconclusive [inhibitor, single point]",
Cc1ccc(-c2nc(C)sc2CC(=O)OCC(=O)Nc2cccc([N+](=O)[O-])c2)cc1,"inconclusive [inhibitor, partial curve, poor fit]",
